Measured values: the supplement of paper PMC3724861
The other results are listed elsewhere or left out.

system: T1, Caupolican (Caup) homeodomain DNA-binding domain; assay: PBM E-score (8-mer, recovered from the published 9-mer minima) (E-score (dimensionless, -0.5 to 0.5)); Drosophila protein; higher = stronger relative binding preference, active = 0.31 or more
T1 sequence: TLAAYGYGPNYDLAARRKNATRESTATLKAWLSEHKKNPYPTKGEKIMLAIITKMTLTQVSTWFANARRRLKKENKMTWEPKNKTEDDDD
Method: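 Protein binding microarray (PBM): in vitro transcribed/translated Caupolican (Caup) homeodomain DNA-binding domain (residues 214-303) applied at 100 nM to a universal 8-mer PBM array (Agilent AMADID 015681). The 8-mer enrichment score (E-score, range -0.5 to 0.5) was computed, and each 9-mer score is the minimum E-score of its two constituent 8-mers. The E-score is the same for a 9-mer and its reverse complement; 0.31 is the stated binding threshold.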

PBM E-score, ≥ 0.232:
TACTATAA

PBM E-score, inactive:
CATTAAGG -0.00904, TGGACGAA 0.0126, CGTTGAGC -0.0886, ACGCCCGT -0.114, ATACCATA 0.195, CTGGTGCC -0.0994, ACAGTAAT 0.232, GCTCGACC -0.211, CGGACTTC -0.186, TAAAATAA 0.0766, CTACCGGA -0.109, TCGGTTCA -0.0112, CACCTATC 0.145, CACCTGAA -0.00184, CTGCTTTA 0.0339, GGACAGTA 0.133, AATCTGGC -0.135, GATGCTCA -0.0713, ATTCTGCG 0.0221, AAGTCGCG -0.0379, AACGAGCG 0.0888, ACACAAAA 0.224, CTTTCCCC -0.175, ACTGAAAC 0.0856, CCGCCGGC -0.236, CCGTCAGA -0.134, AGCTGCTG -0.116, ATTTTTAC 0.128, AACCTAGT 0.0542, ACTGTGTG 0.0583, CACGACCC -0.0834, GCGTAGAA -0.0167, ACAGTAGT 0.15, CGTCTATA 0.0331, AACGCCGG -0.0848, GACCTAAC 0.0777, GGAAAGGA -0.0886, AAGTGTGT 0.245, CTTCTCGA 0.015, CTAAACGA 0.0555, ATCTGGTG 0.0648, CATATAGA 0.159, GGCTTCAC -0.193, GCCGATGA -0.172, GAGACACC -0.0907, CGAGGACA 0.0575, AGTCTGAT 0.0829, ACGCGATC 0.0727, ATGCCCAA 0.0055, AATCGTCG -0.0569, CCCCGAAA -0.0878, ACCTTAAG -0.159, ATGAACCG 0.039, ACGAAAGC -0.038, GAGGTCAC -0.138, CGACCCCC -0.356, CCACAGAC -0.047, GGACTCAC -0.173, ACCGGTGG -0.187, AATGACCG -0.0257, GCTGATAC 0.0701, CCCCAGGA -0.246, CCGTCGAC -0.0932, AATGGCAC 0.00307, GCAGGTAA -0.00378, GTCCCCAA -0.0949, ATACCCAA 0.0238, AGAAGCTA -0.0747, CAAGGCGG -0.0607, ACGTTGAC 0.1, GTGGTAGA -0.0232, AATGCGCG -0.051, ACACGCCT 0.223, CTCGCGCA -0.126, CGAGAGCG -0.158, GTTTACGA 0.164, AACGATGA 0.0452, CAGGCGCG -0.232, CCGCTCCG -0.23, ACTCGGAG -0.12, CAGCAACC -0.0555, AAACCCTC -0.111, TGTATAAA 0.261, ACAGAACC 0.014, ACCTGATC 0.0465, AACGCTTG 0.0171, CTCTTAAC 0.0321, ACGAGAAC 0.0861, CTGACTCC -0.167, GCACGGTA 0.0312, GCCCGCAC -0.169, ACGATATG 0.14, ATGTACGC 0.29, ACATTTAA 0.16, AAAGGCGG -0.0845, TAGGCAAA -0.0532, GCAATCAC 0.0334, AATGAGGC -0.148, ATTCCCAC -0.0202, GCACTTCC -0.177, AATACCTG 0.107, ACTCGCTA -0.105, GCCCGGAC -0.163, AAACCACT 0.0715, AATAGCGA 0.165, CTGATTGA 0.0462, GAACAGGC 0.0467, CCTCCGAA -0.149, ACCGATTA 0.057, AATAGGTC 0.117, AGTGTGAT 0.104, ACGCACAC 0.0386, ATAAGCGA 0.0457, CGTCACAG 0.0559, GAGAAGTA 0.0161, CGCACGAC -0.0375, ATTGCACA 0.113, CGGGGAGC -0.242, GTGAAGTA 0.0389, CCCGAGGG -0.224, TATAACAA 0.306, ATTTCGTC 0.0811, CCTGTCAC 0.144, AGTCGAAT 0.021, ACCCACCT -0.166, AGGTGGGC -0.18, AACCGTTC -0.102, CCGACAAC 0.198, CCTGTACC 0.11, AATGAGAA 0.00508, GGCTCCCC -0.332, ATAATGCG 0.0827, CGGGATAC 0.0126, ATCATGTG 0.226, AACTTAGT -0.0383, CATCGAAC 0.0773, ACGGCAGA -0.0972

PBM E-score, active:
ATGTTGTA 0.431, AAACTACA 0.331

PBM E-score, ≥ 0.182:
TATCAAGA

PBM E-score, ≥ 0.248:
TAATCACA
